# Measured values published in paper PMC4336329 (PLoS ONE, 2015).
# The whole screen tested about 310,000 compounds, of which about 2,200 (0.71%) showed an effect of 50% or more. The effect is printed as a negative number. Some of the results follow.
# Target: human ether-à-go-go-related gene (hERG) potassium channel (human, UniProt Q12809)
# Experiment: primary screen, population patch clamp on CHO cells stably expressing hERG
# human ether-à-go-go-related gene (hERG) potassium channel, sequence (Q12809 whole entry, looked up): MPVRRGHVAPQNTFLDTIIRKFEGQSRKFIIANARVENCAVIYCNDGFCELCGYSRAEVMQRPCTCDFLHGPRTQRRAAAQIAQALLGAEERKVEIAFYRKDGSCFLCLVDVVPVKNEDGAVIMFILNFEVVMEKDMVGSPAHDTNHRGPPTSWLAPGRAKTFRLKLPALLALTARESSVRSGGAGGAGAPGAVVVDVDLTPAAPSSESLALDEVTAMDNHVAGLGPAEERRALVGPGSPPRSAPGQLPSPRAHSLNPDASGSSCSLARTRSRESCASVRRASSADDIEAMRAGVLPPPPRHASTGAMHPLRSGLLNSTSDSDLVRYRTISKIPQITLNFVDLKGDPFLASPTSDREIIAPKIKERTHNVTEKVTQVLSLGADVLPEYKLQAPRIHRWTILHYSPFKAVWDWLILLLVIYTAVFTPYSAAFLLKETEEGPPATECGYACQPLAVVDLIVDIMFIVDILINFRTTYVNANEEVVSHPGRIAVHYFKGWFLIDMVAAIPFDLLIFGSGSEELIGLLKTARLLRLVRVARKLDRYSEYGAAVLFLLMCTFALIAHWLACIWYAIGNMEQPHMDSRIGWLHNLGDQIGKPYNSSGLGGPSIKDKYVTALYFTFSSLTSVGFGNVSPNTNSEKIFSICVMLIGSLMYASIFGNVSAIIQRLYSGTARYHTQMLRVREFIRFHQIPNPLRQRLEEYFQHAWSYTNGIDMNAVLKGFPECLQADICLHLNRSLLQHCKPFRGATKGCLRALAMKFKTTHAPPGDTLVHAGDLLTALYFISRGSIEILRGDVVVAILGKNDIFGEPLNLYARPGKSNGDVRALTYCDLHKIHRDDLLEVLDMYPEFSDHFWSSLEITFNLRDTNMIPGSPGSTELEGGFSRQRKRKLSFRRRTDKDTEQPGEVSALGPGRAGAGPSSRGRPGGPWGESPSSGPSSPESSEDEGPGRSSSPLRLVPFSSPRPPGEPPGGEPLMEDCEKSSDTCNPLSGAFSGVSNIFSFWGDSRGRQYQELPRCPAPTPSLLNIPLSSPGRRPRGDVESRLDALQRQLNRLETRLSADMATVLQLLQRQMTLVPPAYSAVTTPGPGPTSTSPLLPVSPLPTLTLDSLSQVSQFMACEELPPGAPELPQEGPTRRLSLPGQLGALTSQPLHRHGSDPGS
row,Structure (SMILES),"hERG current change (%, negative = inhibition) at 1uM"
1,Cc1oc2c(cc(NS(=O)(=O)c3ccc(C(C)C)cc3)c3ccccc32)c1C(=O)O,8.87%
2,COc1cc2c(cc1OC)CN(C(=O)c1oc3ccccc3c1C)CC2,7.12%
3,CCOC(=O)N1CCN(C(=O)CSC2=NS(=O)(=O)c3ccccc3N2)CC1,0.037%
4,O=Cc1cc(Br)c(OC(=O)N2CCOCC2)c(Br)c1,-1.22%
5,CCOC(=O)c1c(-c2ccccc2)csc1NC(=O)c1ccc(S(=O)(=O)N2CCOCC2)cc1,12.5%
6,Cc1cc(S(=O)(=O)N2CCCCC2CCNC(=O)C(=O)NC2CC2)ccc1F (stereo not drawn),4.66%
7,COc1ccc(NC(=O)Cn2nnc3sc4c(c3c2=O)CC(C)(C)OC4)cc1,5.39%
8,C/C(=N\NC(=O)c1nnn(-c2nonc2N)c1-c1cccs1)c1cccnc1,2.34%
9,O=C(Cc1cccc(NC(=O)C2CCN(C(=O)C3CC3)CC2)c1)Nc1cccc(C(=O)N2CCCC2)c1,9.97%
10,CCOC(=O)c1nc2c(=O)n(C)c(=O)n(C)c2n(C)c1=O,13.7%
11,Cc1cc(C)n2nc(SC(C)C(=O)NCc3ccco3)nc2n1 (stereo not drawn),10.1%
12,COc1ccc(S(=O)(=O)Nc2ccccc2OC)cc1NC(=O)CC1CC2CCC1C2 (stereo not drawn),3.53%
13,N=c1oc2ccccc2cc1C(=O)Nc1ccc(F)cc1,14%
14,Cc1ccc(CN2C(=O)CCC2C(=O)NCCc2ccccc2)cc1 (stereo not drawn),14.2%
15,CC(Sc1nnc(-c2ccc(Cl)cc2)n1C)C(N)=O (stereo not drawn),2.15%
16,COC(=O)C1=C(c2cc3ccccc3s2)C[C@@H]2CC[C@H]1N2C,9.17%
17,Cc1cc(OCC(=O)Nc2sc3c(c2C#N)CC(C)(C)NC3(C)C)c(C(C)C)cc1Cl,11.3%
18,Cc1ccccc1-c1noc(-c2ccccc2C(=O)N2CCCC2)n1,4%
19,COc1cc(/C=C/C(=O)O)cc(S(=O)(=O)NC2CCCC2)c1OC,11.3%
20,Nc1ccc(Cl)c(S(=O)(=O)Nc2ccc(Cl)cc2)c1,14.1%
21,Cn1c(=O)[nH]c(=O)c2c1nc(Br)n2CCCSc1nc2ccccc2o1,-22.4%
22,COc1cc(C(=O)N2CCN(C(=O)c3cccc4ccccc34)CC2)cc(OC)c1OC,12.4%
23,CC1=CCC2C(=O)N(c3ccc4ccccc4n3)C(=O)C2C1 (stereo not drawn),-4.17%
24,CC(=O)N(C)/C=C1\Sc2ccccc2C1=O,10.2%
25,CSCSC1=C(C#N)C(c2ccccc2Cl)C(C(C)=O)=C(C)N1 (stereo not drawn),8.45%
26,Cc1nc(-c2cc(-c3nc(-c4cc(C(F)(F)F)cc(C(F)(F)F)c4)no3)no2)cs1,14.5%
27,CC(=O)c1ccccc1Oc1nc(CN2CCOCC2)nc2scc(-c3cccs3)c12,11.6%

row,Structure (SMILES),"hERG current change (%, negative = inhibition) at 1uM"
1,O=C(N/N=C/c1cccc([N+](=O)[O-])c1)c1ccncc1,10.8%
2,CCn1c(C)c(CS(=O)(=O)c2ccccc2)[nH]c1=O,28.9%
3,Cc1cc([N+](=O)[O-])nn1Cc1ccc(C(=O)N/N=C/c2ccccc2)cc1,6.72%
4,CCN(CC)CCCNc1oc(-c2ccccc2[N+](=O)[O-])nc1C#N,5.21%
5,CN(C)CCCn1c(=O)n(Cc2ccccc2)c(=O)c2c3c(sc21)CCCCC3,4.25%
6,CCCOc1ccc(C2C3=C(CCCC3=O)N(CC(=O)O)C3=C2C(=O)CCC3)cc1OCC,16.3%
7,CCCC(=O)N=C1SC2CS(=O)(=O)CC2N1c1ccc(CC)cc1 (stereo not drawn),11.8%
8,COCCN(Cc1cc2cc3c(cc2nc1Cl)OCO3)C(=O)Nc1ccccc1OC,12.3%
9,O=[N+]([O-])c1cccc(S(=O)(=O)N2CCCC2)c1,-3.67%
10,CCN1CCN(c2cc(C)c3cc(NC(=O)CCC(=O)Nc4ccc(OC)cc4OC)ccc3n2)CC1,13.4%
11,COc1ccc(CNS(=O)(=O)c2cc(-c3cc(C)no3)ccc2OC)cc1OC,9.88%
12,COc1cccc(C(=O)N2c3ccccc3Sc3ccccc32)c1,1.25%
13,CCCSc1nc(C)c2cc(C)cc(C)c2n1,9.27%
14,O=C(COC(=O)C1(c2ccccc2F)CCCC1)N1CCN(C(=O)c2ccco2)CC1,11.6%
15,CCN=c1scc(-c2ccco2)n1/N=C/c1ccc(OC)c(O)c1,-6.07%
16,COc1ccc(C(=O)Nc2ccc(NC(=O)c3cccs3)cc2)cc1[N+](=O)[O-],10.7%
17,COc1cc(C2=Nc3c(c(C)nn3-c3ccccc3)P(=O)(N3CCOCC3)O2)cc(OC)c1OC (stereo not drawn),16.4%
18,Cc1cccn2cc(CNC(=O)c3ccc(Br)o3)nc12,5.26%
19,COc1ccc(CN(C)Cc2cc(=O)n3ccsc3n2)c(OC)c1OC,3.18%
20,Cc1c(NC(=O)CN2C(=O)C3C4C=CC(C4)C3C2=O)c(=O)n(-c2ccccc2)n1C (stereo not drawn),5.38%
21,O=C1OCC(c2ccc(Cl)s2)=C1c1ccccc1[N+](=O)[O-],16.2%
22,COc1ccc(C(c2nnnn2Cc2ccc(F)cc2)N2CCN(c3ccccc3)CC2)cc1 (stereo not drawn),3.44%
23,COc1ccc2c(c1)C(c1cccs1)=NNC(c1ccncc1)=N2,1.92%
24,C=CCN1C2CCCC1CC(NC(=O)Nc1cccc(C(C)=O)c1)C2 (stereo not drawn),11.3%
25,CCCCc1cc(=O)oc2cc(C)cc(OCC(=O)N3CCC(C(N)=O)CC3)c12,4.77%
26,C#CCOCCOCCOCCNc1nc(N2CCOCC2)nc(N2CCN(C(=O)[C@H]([C@@H](C)O)n3cc(CCCC[NH3+])nn3)CC2)n1.[Cl-],16.1%
27,O=C1OCCC1Sc1ncnc2sc3c(c12)CCC3 (stereo not drawn),5.58%
